In the supplement of paper PMC4967469 one finds AUC and IC50 data, which are given here for nine cell lines.

By IC50 is meant the dose at which the fit gives 50% viability; a fit beyond the top or the lowest dose is shown as a bound at that dose. The AUC spans the tested range (256-fold, ending at the top dose) of the same fit; values near 1 show little effect. For some of these results: An inferred top dose was calculated from the reported fits. For some of these results: Where an entry number is given, a second screen of the drug exists; the two often differ.

Holding throughout (assay): Viability of human cancer cell lines after 72 h of drug (GDSC screen)
Compound in experiment [1]: NC(=O)Nc1sc(-c2ccc(F)cc2)cc1C(N)=O [TPCA-1]
To be noted: top dose 20 µM. How it is done:
(§1)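 Human cancer cell lines in 384-well plates, medium with 10% serum, drug for 72 h over a 256-fold dose range (nine 2-fold or five 4-fold steps up to the top dose). Adherent lines were fixed and stained with the nucleic acid dye Syto60, suspension lines read with resazurin; signal relative to control wells, capped at 0 and 100%. One two-parameter sigmoid per drug and line, fitted in a mixed model over all curves with the slope shared within a line.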

Compound in experiment [2]: CCCS(=O)(=O)Nc1ccc(F)c(C(=O)c2c[nH]c3ncc(Cl)cc23)c1F [PLX4720]
To be noted: top dose 10 µM. As for the experimental part: as §1

Compound in experiment [3]: CC(C)CC(=O)Nc1n[nH]c2c1CN(C(=O)C1CCN(C)CC1)C2(C)C [PHA-793887]
The following applies: top dose 10.24 µM. As for the experimental part: as §1

Compound in experiment [4]: C[C@@H](N)c1ccc(C(=O)Nc2ccnc3[nH]ccc23)cc1 [Y-39983]
To be noted: top dose 20 µM; top dose inferred. How it is done:
as §1

Compound in experiment [5]: C/C(=C\c1csc(C)n1)[C@@H]1C[C@@H]2O[C@]2(C)CCC[C@H](C)[C@H](O)[C@@H](C)C(=O)C(C)(C)[C@@H](O)CC(=O)O1 [Epothilone B]
The following applies: top dose 0.032 µM; top dose inferred. As for the experimental part: as §1

Compound in experiment [6]: CCc1nc(N)nc(N)c1-c1ccc(Cl)cc1 [Pyrimethamine]
The following applies: top dose 20 µM; top dose inferred. How it is done: as §1

Compound in experiment [7]: CN1CCN(CCOc2cc(OC3CCOCC3)c3c(Nc4c(Cl)ccc5c4OCO5)ncnc3c2)CC1 [AZD-0530]
The following applies: top dose 2 µM. How it is done:
as §1

Where [8] appears, read: screen: GDSC drug entry 1371, top dose inferred.

What is called IC50 is the midpoint of a concentration-inhibition curve.

Turning to 8-MG-BA (glioma, adherent), the AUC was found to be 0.883 in experiment [1]; 0.844 in experiment [2] (screen: GDSC drug entry 1036); 0.838 in experiment [2] (setting [8]); 0.659 in experiment [3]; 0.94 in experiment [4]; 0.587 in experiment [5]. Further, the AUC in experiment [6] worked out at 0.876; in experiment [7], 0.983. The IC50 in experiment [1] is 19.1 µM; in experiment [2] (screen: GDSC drug entry 1036), 6.51 µM; in experiment [3], 1710 nM; in experiment [4] it was more than 20 µM; in experiment [5] it was 3.41 nM; in experiment [6], 17.7 µM. In experiment [7], the IC50 was more than 2000 nM.
On to “697 (lymphoblastic leukaemia, suspension)”, for which the AUC in experiment [1] is 0.293; in experiment [2] (screen: GDSC drug entry 1036), 0.816; in experiment [2] (setting [8]), 0.94; in experiment [3], 0.119; in experiment [4], 0.83; in experiment [5] it was 0.484. Also, the AUC stood at 0.532 in experiment [6] and 0.963 in experiment [7]. The concentration for half-maximal inhibition (IC50) is 0.375 µM in experiment [1]; 4.2 µM in experiment [2] (screen: GDSC drug entry 1036); more than 10 µM in experiment [2] (setting [8]); 57.5 nM in experiment [3]; 9.26 µM in experiment [4]; 1.82 nM in experiment [5]. In addition, the IC50 is 1.5 µM in experiment [6] and more than 2000 nM in experiment [7].
As for A3-KAW (B-cell lymphoma, suspension), the AUC in experiment [1] came out at 0.227; in experiment [2] (screen: GDSC drug entry 1036), 0.993; in experiment [2] (setting [8]), 0.94; in experiment [3] it was 0.182; in experiment [4], 0.827; in experiment [5], 0.704. The AUC in experiment [6] came to 0.808; in experiment [7] it was 0.991. For the same cell line, the 50% inhibitory concentration (IC50) in experiment [1] is 0.249 µM; in experiment [2] (screen: GDSC drug entry 1036), more than 10 µM; in experiment [2] (setting [8]), more than 10 µM; in experiment [3], 94.6 nM; in experiment [4], 9.01 µM; in experiment [5] it was 6.51 nM. Further, the IC50 in experiment [6] is 7.89 µM; in experiment [7], more than 2000 nM.
On to A4-Fuk (B-cell lymphoma, suspension), for which the AUC in experiment [1] came to 0.853; in experiment [2] (screen: GDSC drug entry 1036), 0.874; in experiment [2] (setting [8]), 0.955; in experiment [3], 0.965; in experiment [4], 0.904; in experiment [5], 0.436. Besides, the AUC turned out to be 0.853 in experiment [6] and 0.982 in experiment [7]. Also, the 50% inhibitory concentration (IC50) in experiment [1] is 16.6 µM; in experiment [2] (screen: GDSC drug entry 1036) it was more than 10 µM; in experiment [2] (setting [8]), more than 10 µM; in experiment [3], more than 10200 nM; in experiment [4], more than 20 µM; in experiment [5] it was 1.33 nM. The IC50 was 16.7 µM in experiment [6] and more than 2000 nM in experiment [7].
On to A101D (melanoma, adherent), for which the AUC amounted to 0.903 in experiment [1]; 0.501 in experiment [2] (screen: GDSC drug entry 1036); 0.708 in experiment [2] (setting [8]); 0.981 in experiment [3]; 0.971 in experiment [4]; 0.408 in experiment [5]. In addition, the values for the AUC in experiment [6] and in experiment [7] were 0.922 and 0.971, respectively. For the same cell line, the IC50 in experiment [1] is more than 20 µM; in experiment [2] (screen: GDSC drug entry 1036) it was 0.628 µM; in experiment [2] (setting [8]), 2.79 µM; in experiment [3] it was more than 10200 nM; in experiment [4] it was more than 20 µM; in experiment [5] it was 1.05 nM. In addition, the IC50 in experiment [6] is more than 20 µM; in experiment [7], more than 2000 nM.
As for A253 (head and neck, adherent), the AUC in experiment [1] worked out at 0.97; in experiment [2] (screen: GDSC drug entry 1036), 0.989; in experiment [2] (setting [8]) it was 0.987; in experiment [3], 0.869; in experiment [4], 0.988; in experiment [5], 0.751. In addition, the values for the AUC in experiment [6] and in experiment [7] were 0.902 and 0.976, respectively. Also, the 50% inhibitory concentration (IC50) in experiment [1] is more than 20 µM; in experiment [2] (screen: GDSC drug entry 1036) it was more than 10 µM; in experiment [2] (setting [8]) it was more than 10 µM; in experiment [3] it was 9010 nM; in experiment [4], more than 20 µM; in experiment [6], more than 20 µM. For the same cell line, the IC50 in experiment [7] is more than 2000 nM.
In the case of A388 (skin, adherent), the AUC in experiment [1] was 0.912; in experiment [2] (screen: GDSC drug entry 1036), 0.906; in experiment [2] (setting [8]) it was 0.962; in experiment [3], 0.904; in experiment [4], 0.973; in experiment [5], 0.417. Also, the AUC is 0.917 in experiment [6] and 0.918 in experiment [7]. Moreover, the IC50 was more than 20 µM in experiment [1]; more than 10 µM in experiment [2] (screen: GDSC drug entry 1036); more than 10 µM in experiment [2] (setting [8]); more than 10200 nM in experiment [3]; more than 20 µM in experiment [4]; 1.14 nM in experiment [5]. Further, the IC50 is more than 20 µM in experiment [6] and more than 2000 nM in experiment [7].
A498 (kidney, adherent): the AUC in experiment [1] was 0.965; in experiment [2] (screen: GDSC drug entry 1036), 0.94; in experiment [2] (setting [8]) it was 0.975; in experiment [3], 0.953; in experiment [4] it was 0.975; in experiment [5], 0.849. Also, the results for the AUC in experiment [6] and in experiment [7] were 0.969 and 0.978, respectively. Further, the 50% inhibitory concentration (IC50) in experiment [1] was more than 20 µM; in experiment [2] (screen: GDSC drug entry 1036) it was more than 10 µM; in experiment [2] (setting [8]) it was more than 10 µM; in experiment [3] it was more than 10200 nM; in experiment [4], more than 20 µM; in experiment [5] it was more than 32 nM. Further, the figures for the IC50 in experiment [6] and in experiment [7] were more than 20 µM and more than 2000 nM, respectively.
Consider ALL-SIL (T-cell leukaemia, suspension), for which the AUC in experiment [1] is 0.605; in experiment [2] (screen: GDSC drug entry 1036), 0.96; in experiment [2] (setting [8]) it was 0.947; in experiment [3], 0.665; in experiment [4], 0.871; in experiment [5], 0.396. Moreover, the AUC in experiment [6] worked out at 0.916; in experiment [7] it was 0.57. Moreover, the IC50 in experiment [1] was 2.33 µM; in experiment [2] (screen: GDSC drug entry 1036), more than 10 µM; in experiment [2] (setting [8]), more than 10 µM; in experiment [3] it was 1710 nM; in experiment [4] it was 14.5 µM; in experiment [5] it was 1.08 nM. Also, the concentration for half-maximal inhibition (IC50) in experiment [6] is more than 20 µM; in experiment [7] it was 188 nM.
